Measurements as given in PubChem BioAssay AID1645887 (National Center for Advancing Translational Sciences (NCATS), 2021).
“And” between values parts separate entries of the source, which are not always exact repeats. Equal values may be shown once. Hit rate of the full screen: of about 16,000 compounds, about 40 (0.2%) were called active. Inconclusive results (about 1%) are left out. Calls follow the shape of the dose curve; as a rule, active = well fitted activation curve with a large enough effect; inconclusive = small, poorly fitted or top-dose-only effect, or another doubt; inactive = no such curve, though single readings can be large or run the other way. Some of the results follow.

Target: Rap guanine nucleotide exchange factor 4 (Homo sapiens) (UniProt Q8WZA2)
UniProt Q8WZA2, sequence (Q8WZA2 whole entry, looked up): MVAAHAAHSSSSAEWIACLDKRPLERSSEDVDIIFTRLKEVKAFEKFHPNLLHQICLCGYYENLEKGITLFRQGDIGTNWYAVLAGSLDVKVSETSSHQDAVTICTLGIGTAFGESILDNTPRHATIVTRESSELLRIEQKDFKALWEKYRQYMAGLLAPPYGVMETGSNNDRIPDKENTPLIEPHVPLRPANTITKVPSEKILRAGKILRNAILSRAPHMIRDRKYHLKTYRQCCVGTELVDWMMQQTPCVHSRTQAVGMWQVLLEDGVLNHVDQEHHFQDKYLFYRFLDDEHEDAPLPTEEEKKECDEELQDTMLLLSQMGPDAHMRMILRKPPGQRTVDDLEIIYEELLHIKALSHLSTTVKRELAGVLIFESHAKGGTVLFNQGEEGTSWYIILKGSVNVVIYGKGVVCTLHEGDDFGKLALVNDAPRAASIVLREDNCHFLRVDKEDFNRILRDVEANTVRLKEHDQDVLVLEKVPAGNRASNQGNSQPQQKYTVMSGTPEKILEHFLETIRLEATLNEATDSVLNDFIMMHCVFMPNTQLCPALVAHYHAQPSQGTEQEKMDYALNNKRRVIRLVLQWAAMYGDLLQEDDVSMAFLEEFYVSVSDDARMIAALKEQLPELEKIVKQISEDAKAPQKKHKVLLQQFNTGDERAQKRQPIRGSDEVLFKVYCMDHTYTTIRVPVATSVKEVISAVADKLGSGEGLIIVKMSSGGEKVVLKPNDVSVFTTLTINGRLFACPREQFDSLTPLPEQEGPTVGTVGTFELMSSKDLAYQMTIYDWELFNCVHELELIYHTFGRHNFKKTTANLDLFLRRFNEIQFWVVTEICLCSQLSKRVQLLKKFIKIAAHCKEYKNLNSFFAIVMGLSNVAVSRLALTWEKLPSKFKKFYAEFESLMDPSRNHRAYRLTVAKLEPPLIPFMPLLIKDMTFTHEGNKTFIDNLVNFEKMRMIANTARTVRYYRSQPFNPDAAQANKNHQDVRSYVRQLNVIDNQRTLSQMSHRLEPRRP
Test: Validation qHTS for agonist of cAMP-regulated guanine nucleotide exchange factor 4 (EPAC2);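 also: exchange makes BODIPY-GDP fluorescence drop when released from Rap1B; series mostly up to about 150 µM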
Details: EPAC2 Rap1B BODIPY-GDP exchange, fluorescence; activation: stronger effect = higher value
How it was run: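 Fluorescent exchange assay: 100 nM EPAC2 with 250 nM RAP1B-BODIPY-GDP and 50 uM GDP; compound added, 5 min at room temperature, then read (ex 480/em 540 nm) every 5 min for 30 min. Normalized to 6.5 mM cAMP agonist control.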
% is scaled to controls: 0 for no effect and ±100 for the full control effect.

activation, inactive:
COc1cc2c(cc1OC)-c1cc3nc4ccccc4nc3n1C(C)(C)C2 -11.9%
CCCOC(=O)c1c(-c2ccccc2)nc(CC)c(C(=O)SCC)c1CCC -30.1%
COc1ccccc1OCCNCC(O)COc1cccc2[nH]c3ccccc3c12 (stereo not given) -14.5% and -10.6%
COc1ccc(CNc2nc(-c3ccccc3CN(C)C)nc3ccccc23)c(OC)c1 7.2%
CC1C(=O)CC2C3(C)CCC2(C(C)C(=O)O)C(=O)C13 (stereo not given) -5.93%
CN1CCN(c2nc(-c3cccc(C#N)c3)nc3ccccc23)CC1 -22.7%
CC(C)=CCc1c(O)cc2occ(-c3ccc4c(c3)OCO4)c(=O)c2c1O 8.54%
O=S(=O)(c1ccccc1)N1CCC[C@@]2(CCN(c3ncccn3)C2)C1 -15.5%
NC(CCC(=O)NCS(=O)(=O)O)C(=O)O (stereo not given) 3.53%
N[C@@H](C(=O)O)c1ccc(O)c(C(=O)O)c1 -3.77%
Cc1cc(CC(C)CC(C)(C)C)n(O)c(=O)c1 (stereo not given) (tested in a mixture with another compound) -34%
OC1(c2cccnc2)CCN(Cc2ccc3c(c2)CN(Cc2cc4ccccc4s2)CCO3)CC1 -11.4%
COc1ncc2nc(C)c(=O)n(-c3ccccc3)c2n1 -4.73%
C1=C/C(=C2/C=Cc3ccccc32)c2ccccc2N1 -2.61%
CCn1cc(C(=O)O)c(=O)c2cc(F)c(N3CCNCC3)cc21 12.2% and -2.65% and -20.6%
C=C1C(=O)OC2C[C@@]3(C)CCCC(=C)[C@@H]3CC12 (stereo not given in full) 2.93%
CC(C)C[C@@H](CO)N1CCN(CC(C)C)CCC1=O -2.03% and -23.9%
Cc1cc2c(cc1C)NC1(C[C@H]3CCC(=O)N4CC[C@@H](C1)[C@@H]34)C(=NC(C)(C)CC(C)(C)C)N2 (stereo not given in full) -16.6%
Cc1ccccc1-c1nccc(Nc2ccc(F)cc2)n1 -31%
CC1CN(CCC(=O)N2CCCC(C(=O)c3nccn3C)C2)Cc2cc(Cl)ccc2O1 (stereo not given) 8.79%
Fc1ccc(Nc2nc(-c3ccoc3)nc3ccccc23)cc1 -3.25%
O=c1cc(-c2cc3ccccc3oc2=O)c2ccc(O)cc2o1 -3.59%
CNc1nc(-c2ccccc2CN(C)C)nc2ccccc12 -8.66%
FC(F)(F)c1ccccc1-c1nc(NCc2cccs2)c2ccccc2n1 5.83%
O[Si](CCCN1CCCCC1)(c1ccc(F)cc1)C1CCCCC1 (stereo not given) -25.5%
c1ccc(N2CCN(CCCOc3ccc4c(c3)OCO4)CC2)cc1 7.91% and 2.5%
O=C(C1CCCCC1)N(CCN1CCN(c2ccccc2CO)CC1)c1ccccn1 2.62%
c1cncc(OC2CCN(Cc3ccc4c(c3)CN(Cc3nc5ccccc5s3)CCO4)CC2)c1 0.549%
COCc1c(C(=O)N2CCCCCC2)cnn1-c1nccc(-c2cccs2)n1 -12.9%
COc1ccccc1/C=C\C(=O)O -6.2%
COC(=O)N1CCC2(CCCN(Cc3ccccc3)C2)CC1 -7.64%
CCOC(=O)C1=C(C)NC(C)=C(C(=O)OC)C1c1cccc([N+](=O)[O-])c1 (stereo not given) -11.7% and -10.6% and -3.01%
COCCOC(=O)C1=C(C)NC(C)=C(C(=O)OC(C)C)[C@@H]1c1cccc([N+](=O)[O-])c1 -17.8%
CCCCCCCCCCCCCCCCC(C(=O)O)C(O)(CC(=O)O)C(=O)O (stereo not given) -41.7%
Cc1nc2c(OCc3ccccc3)cccn2c1CC#N -17.7% and -2.55%
COCCC1CCCCN1Cc1nc(N2CCCCC2)c2cc(OC)c(OC)cc2n1 (stereo not given) -4.09%
Cc1nc(C)n(CC(=O)NCC2Cc3cc(-c4cccc(OC(F)(F)F)c4)ccc3O2)n1 (stereo not given) -1.91%
CN1CCN(c2ncnc3ccc(-c4ccccc4C#N)cc23)CC1 -17%
COc1cccc(C(=O)N2CCc3c(C(=O)NC(C)c4ccco4)c(OC)cc(=O)n3CC2)c1OC (stereo not given) -0.0381%
COc1ccc2[nH]cc(CCNc3ncnc4ccc(-c5cccnc5)cc34)c2c1 10.4%
NC(=O)C[C@@H](N)C(=O)O -13.6%
Cc1ccc(F)cc1S(=O)(=O)NCc1nc(N2CCCC2)c2cccc(C)c2n1 -18.2%
N#Cc1cccc(CN2CCC(=O)N([C@H](CO)c3ccccc3)CC2)c1 -2.94%
COc1cccc(Cc2nc3cccnc3n2C2CCN(Cc3ccc(C)s3)CC2)c1 -3.99%
Cc1cc(C)cc(C(=O)NCCn2cc(C(=O)N3CCSCC3)nn2)c1 -4.23%
N[C@H](C(=O)O)[C@H](Cc1ccccc1)C(=O)O -25%
CC(=O)OC[C@@]1(O)C[C@@]23CC[C@@H]4c5ccoc5CC[C@@]4(C)[C@@H]2CCC1C3 -0.868%
O=C1C[C@H](c2ccccc2)Oc2cc(O)cc(O)c21 -11%
O=S(=O)(c1ccccc1)N1CCC2(CCN(c3cccc(-c4ccccc4)c3)CC2)CC1 -2.97%
COc1ccc(CNc2cc(-c3ccccc3CN(C)C)ncn2)c(OC)c1 -6.37%
CCC(COC)NC(=O)c1cnn(-c2ncc3c(n2)-c2ccccc2CC3)c1C (stereo not given) 3.4%
CN(C)c1nc2c(Br)c(Br)c(Br)c(Br)c2[nH]1 -20.1%
CCC1CN(Cc2cn[nH]c2-c2ccccc2)Cc2cc(OC)ccc2O1 (stereo not given) -7.76%
O=C(c1ccco1)N1CCC2(CC1)CN(c1cccc(-c3ccccc3)c1)C2 -4.71%
COc1ccc(C(=O)Oc2ccc3c(-c4ccc(OC)cc4)cc(=O)oc3c2)cc1 -9.66%
